The supplement of paper PMC12217912
Some of the results follow. Sequences were assembled here from the parent chain. Values near 0.05 are background.

B1: TEV protease; numbered along this chain (parent)
chain: MGESLFKGPRDYNPISSSICHLTNESDGHTTSLYGIGFGPFIITNKHLFRRNNGTLVVQSLHGVFKVKDTTTLQQHLVDGRDMIIIRMPKDFPPFPQKLKFREPQREERICLVTTNFQTKSMSSMVSDTSCTFPSGDGIFWKHWIQTKDGQCGSPLVSTRDGFIVGIHSASNFTNTNNYFTSVPKNFMELLTNQEAQQWVSGWRLNADSVLWGGHKVFMVKPEEPFQPVKEATQL

Variants of: B1
Experiment: raw area under fraction-flipped curve 0-4 h after induction (AUC4h, not background-subtracted), DNA-recorder readout of cleavage of the substrate (dimensionless); higher = more cleavage of the substrate by the protease variant
Conditions: temperature: 34 °C; time window: 0-4 h after rhamnose induction
Procedure: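 In vivo DNA recorder in E. coli TOP10(DE3) ΔrhaA at 34 °C. Each TEVp single-site mutant (parent TEVp 0) is paired with a single-site variant of the 7-mer TEVs (canonical ENLYFQ|S). The substrate sits between flexible linkers in a Bxb1-sfGFP-TEVs-SsrA fusion, so cleavage stabilises Bxb1 and speeds flipping of a recombination array, read by NGS. The value is the raw area under the fraction-flipped curve over 0-4 h after rhamnose induction (AUC4h), with ≥20 reads per time point. It is not background-subtracted; inactive controls average about 0.047.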
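Note: Bxb1 expression induced with 0.2% (w/v) L-rhamnose at OD600 near 0.5, cultures sampled hourly, flipped fraction per protease–substrate barcode pair counted by paired-end Illumina sequencing.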

Variant | area with substrate ENAYFQS | area with substrate ENCYFQS | area with substrate ENDYFQS | area with substrate ENEYFQS | area with substrate ENFYFQS | area with substrate ENPYFQS | area with substrate ENQYFQS | area with substrate ENRYFQS | area with substrate ENSYFQS | area with substrate ENVYFQS | area with substrate ENYYFQS | area with substrate ENGYFQS | area with substrate ENIYFQS | area with substrate ENNYFQS | area with substrate ENTYFQS | area with substrate ENWYFQS | area with substrate ENKYFQS | area with substrate ENHYFQS | area with substrate ENMYFQS
L5N | 0.0437 | 0.0701 | 0.0552 | 0.0603 | 0.0589 | 0.0567 | 0.0653 | 0.0618 | 0.0564 | 0.0772 | 0.0665 |  |  |  |  |  |  |  | 
L5W | 0.0698 | 0.0779 |  | 0.0615 | 0.0647 |  | 0.0583 | 0.0834 | 0.0672 | 0.0777 |  | 0.0642 | 0.149 | 0.0576 | 0.068 | 0.0714 |  |  | 
L5A | 0.0551 |  | 0.0663 |  | 0.0546 |  | 0.0746 | 0.0728 |  |  |  | 0.0681 | 0.134 | 0.0548 | 0.0701 |  | 0.0674 |  | 
L22Q | 0.0415 | 0.0431 | 0.0216 | 0.0505 | 0.0456 |  | 0.0285 | 0.0414 | 0.0519 |  | 0.0479 | 0.055 | 0.0288 | 0.0474 | 0.0394 |  |  | 0.044 | 
D27N | 0.0641 | 0.0742 | 0.0597 | 0.0595 |  |  | 0.0697 | 0.0583 |  | 0.0637 |  |  | 0.0881 | 0.0697 | 0.0713 |  |  |  | 0.0591
D27M | 0.0439 | 0.0613 |  | 0.0566 | 0.0582 | 0.0649 | 0.0634 | 0.0715 | 0.0885 | 0.0564 | 0.0665 | 0.0518 | 0.0773 | 0.058 | 0.0689 |  |  | 0.0547 | 
E3T | 0.0663 |  |  | 0.068 |  | 0.054 | 0.06 | 0.0675 | 0.0617 |  | 0.0487 | 0.0322 |  |  | 0.0588 |  |  |  | 
D11C | 0.0719 | 0.0517 | 0.06 | 0.0798 | 0.0635 |  | 0.0662 | 0.055 | 0.0643 | 0.0666 | 0.0577 | 0.0739 | 0.153 | 0.0624 | 0.0524 | 0.0439 | 0.06 | 0.0679 | 0.028
F38H | 0.0618 | 0.0578 | 0.0567 | 0.0573 | 0.0543 | 0.0579 | 0.0695 | 0.0604 | 0.0636 | 0.0925 |  | 0.067 | 0.0975 | 0.0534 |  | 0.0542 | 0.0463 | 0.0601 | 
F38Q | 0.0518 |  | 0.0696 | 0.0609 | 0.0659 | 0.0582 | 0.056 | 0.0534 | 0.0502 | 0.0747 | 0.0673 | 0.0717 | 0.0952 | 0.0589 | 0.0612 |  | 0.0498 | 0.0338 | 0.0826
G2L | 0.0594 | 0.0621 |  | 0.0631 | 0.0457 |  | 0.0508 | 0.0626 | 0.0561 | 0.0924 |  |  |  | 0.0511 |  | 0.0506 | 0.0773 | 0.0535 | 
K7G | 0.0613 | 0.103 | 0.0338 |  |  |  | 0.0698 | 0.0492 | 0.0693 |  |  |  |  | 0.0374 | 0.0631 |  |  |  | 
K7L | 0.0397 | 0.0621 | 0.0725 | 0.0683 |  | 0.0557 |  |  | 0.0747 | 0.0617 |  |  |  | 0.062 |  | 0.0075 |  |  | 
S17T | 0.0661 |  | 0.0596 | 0.0589 | 0.0641 | 0.0537 | 0.0634 | 0.0549 | 0.0381 | 0.0842 |  |  | 0.12 | 0.0737 | 0.0439 |  | 0.0666 | 0.104 | 0.108
F49W | 0.0634 | 0.0663 | 0.0616 | 0.0567 | 0.0578 | 0.0621 | 0.0568 | 0.055 | 0.0663 | 0.0721 |  | 0.0471 |  | 0.0564 | 0.0833 |  | 0.0642 | 0.0603 | 0.0502
Y34S | 0.0544 |  | 0.0512 |  |  |  | 0.0563 | 0.0763 | 0.056 |  | 0.0471 | 0.111 |  |  |  | 0.0692 | 0.0678 | 0.0572 | 
Y34V | 0.0609 | 0.056 | 0.0676 | 0.0677 | 0.0805 |  | 0.0592 |  | 0.0633 |  |  | 0.0592 |  |  |  | 0.0425 | 0.066 | 0.0544 | 
Y34R | 0.0409 | 0.0109 |  |  |  |  | 0.0648 | 0.061 | 0.0598 | 0.0674 |  | 0.0559 |  |  |  |  | 0.0591 | 0.0376 | 
G54E | 0.0502 | 0.0785 | 0.0619 | 0.0548 |  | 0.046 | 0.0546 | 0.0526 | 0.0585 | 0.0698 |  |  | 0.0688 | 0.0687 | 0.0621 |  | 0.0562 | 0.0743 | 
I43Y | 0.0498 | 0.0709 | 0.0459 | 0.0562 |  | 0.0572 | 0.0431 | 0.0393 |  |  | 0.0679 | 0.0496 |  | 0.0494 | 0.0545 |  | 0.0511 | 0.0541 | 
R50G | 0.0527 | 0.0552 | 0.0517 | 0.0636 |  | 0.0377 | 0.0637 | 0.0579 | 0.0512 | 0.0918 | 0.0642 | 0.0697 | 0.111 | 0.0633 |  |  | 0.0722 | 0.0591 | 
R50M | 0.0658 | 0.0712 |  | 0.0588 | 0.0486 | 0.0646 | 0.0597 | 0.0571 | 0.0606 | 0.0792 | 0.0725 | 0.0912 | 0.142 | 0.0499 |  |  | 0.0549 | 0.0621 | 0.0995
R51Y | 0.0662 | 0.0624 | 0.0795 | 0.0554 |  | 0.0575 | 0.0513 |  |  | 0.053 | 0.0603 | 0.0575 |  | 0.061 |  | 0.0356 |  |  | 
R51W | 0.0728 | 0.0557 | 0.051 | 0.0459 |  | 0.0524 | 0.0295 | 0.0411 | 0.0702 | 0.082 |  | 0.0569 |  | 0.0605 | 0.0737 |  |  |  | 0.0988
R51P | 0.0596 | 0.0393 | 0.0628 | 0.0509 | 0.0626 | 0.0602 | 0.0577 | 0.0456 | 0.0585 |  |  | 0.0679 | 0.0735 |  | 0.0808 |  | 0.0489 |  | 
F6D | 0.082 |  | 0.0507 |  | 0.0641 |  | 0.0576 |  | 0.0632 | 0.078 |  | 0.0617 |  | 0.0521 |  |  |  |  | 
F6S | 0.0726 |  | 0.0387 | 0.0619 |  |  | 0.0547 | 0.0542 | 0.0645 | 0.0711 |  |  |  | 0.057 |  |  |  | 0.0594 | 
F6G | 0.0559 | 0.0732 | 0.0711 | 0.0499 |  |  | 0.0491 |  | 0.0772 |  |  |  |  |  | 0.0297 |  |  |  | 
